# Laboratory results: the supplement of paper PMC12067093, “Discovery and optimisation of a covalent ligand for TRIM25 and its application to targeted protein ubiquitination” (Chemical Science, 2025)
# About 21,000 targets were measured; listed, in parts, are those with the largest changes and a random draw of the rest.
# Compound: CC1Cc2ccccc2N1C(=O)C1CCCN(C1)C(=O)CCl (mixture of isomers) [TRIM25 ligand 11 (diastereomer mixture)]
# Experiment: probe-labelled cysteine peptide fold change vs DMSO (competition) (log2 fold change); higher = less target engagement (more negative = stronger competition)
# Settings: THP-1, incubation time: 4 h
# 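Note: competitive chemoproteomic profiling in live THP-1 cells with an iodoacetamide desthiobiotin (IA-DTB) probe, comparing probe-labelled peptide intensities in compound-treated cells against DMSO-treated controls.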
# Sequence of UniProt P51991 (P51991 whole entry, looked up): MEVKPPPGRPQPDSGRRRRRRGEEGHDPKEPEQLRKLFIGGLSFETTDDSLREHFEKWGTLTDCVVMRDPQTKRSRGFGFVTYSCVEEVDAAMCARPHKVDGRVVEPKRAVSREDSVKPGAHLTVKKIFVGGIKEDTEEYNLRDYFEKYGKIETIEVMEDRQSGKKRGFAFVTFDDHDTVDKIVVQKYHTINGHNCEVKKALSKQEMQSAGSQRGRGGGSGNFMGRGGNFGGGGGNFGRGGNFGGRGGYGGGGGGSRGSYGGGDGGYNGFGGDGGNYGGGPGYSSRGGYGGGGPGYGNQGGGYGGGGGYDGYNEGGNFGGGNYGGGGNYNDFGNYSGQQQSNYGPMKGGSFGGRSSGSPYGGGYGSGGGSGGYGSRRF
target,measurement,setting,value
HNRNPA3_P51991_85+94_GFGFVTYSCVEEVDAAMCAR (UniProt P51991),probe-labelled cysteine peptide fold change,10 µM,0.0715
same,probe-labelled cysteine peptide fold change,50 µM,-0.152
